In all, about 310,000 compounds went through this assay and about 14,000 (4.5%) showed an effect of 50% or more. Effects have a minus sign here. The list shows a part of the results.
These compounds were tested against human ether-à-go-go-related gene (hERG) potassium channel (human, UniProt Q12809) (assay: primary screen, population patch clamp on CHO cells stably expressing hERG).
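Note: peak tail current of the secondary pulse compared with the same well before compound.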

Chain of human ether-à-go-go-related gene (hERG) potassium channel (Q12809 whole entry, looked up): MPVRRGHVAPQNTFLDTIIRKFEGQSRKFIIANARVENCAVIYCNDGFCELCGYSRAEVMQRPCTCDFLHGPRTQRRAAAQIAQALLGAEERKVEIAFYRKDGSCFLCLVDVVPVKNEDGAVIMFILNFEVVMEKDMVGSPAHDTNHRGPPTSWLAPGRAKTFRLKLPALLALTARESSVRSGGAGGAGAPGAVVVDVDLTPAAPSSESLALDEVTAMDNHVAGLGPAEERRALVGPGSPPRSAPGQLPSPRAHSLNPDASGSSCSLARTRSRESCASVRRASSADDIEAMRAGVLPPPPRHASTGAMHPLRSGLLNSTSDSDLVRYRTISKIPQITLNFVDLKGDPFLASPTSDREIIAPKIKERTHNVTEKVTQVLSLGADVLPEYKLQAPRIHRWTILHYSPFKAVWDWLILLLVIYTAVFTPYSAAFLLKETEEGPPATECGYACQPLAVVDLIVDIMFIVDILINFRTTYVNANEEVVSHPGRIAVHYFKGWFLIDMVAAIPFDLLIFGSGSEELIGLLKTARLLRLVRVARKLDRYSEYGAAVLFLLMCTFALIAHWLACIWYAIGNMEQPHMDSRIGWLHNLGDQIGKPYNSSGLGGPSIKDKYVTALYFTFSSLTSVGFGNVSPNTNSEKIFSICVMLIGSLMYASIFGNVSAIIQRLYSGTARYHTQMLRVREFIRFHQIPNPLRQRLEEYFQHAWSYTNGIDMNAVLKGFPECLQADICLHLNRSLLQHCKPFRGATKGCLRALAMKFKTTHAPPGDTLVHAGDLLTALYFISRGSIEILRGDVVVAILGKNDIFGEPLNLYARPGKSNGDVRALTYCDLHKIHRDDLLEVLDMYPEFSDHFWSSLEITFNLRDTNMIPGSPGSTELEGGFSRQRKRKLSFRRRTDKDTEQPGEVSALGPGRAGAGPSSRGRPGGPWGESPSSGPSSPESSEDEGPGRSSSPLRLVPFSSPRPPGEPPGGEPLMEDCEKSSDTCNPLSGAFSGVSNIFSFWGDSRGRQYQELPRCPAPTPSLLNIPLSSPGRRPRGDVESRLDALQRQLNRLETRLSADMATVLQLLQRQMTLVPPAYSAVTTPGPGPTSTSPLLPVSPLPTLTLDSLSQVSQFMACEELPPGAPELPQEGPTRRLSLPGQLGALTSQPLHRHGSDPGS

Structure (SMILES) | hERG current change (%, negative = inhibition) at 10uM [%]
O=C(Nc1c2c(nn1-c1ccc([N+](=O)[O-])cc1)CS(=O)(=O)C2)c1cccs1 | -20.5
CCOCCCNC(=O)C(c1ccc(Cl)cc1)N(Cc1cccs1)C(=O)c1ccccn1 (centres unmarked) | -16.8
COc1ccc(S(=O)(=O)N2CCC3(CC2)OCCN3S(=O)(=O)c2ccc(OC)cc2)cc1 | -24.1
CCOc1ccc(S(=O)(=O)NCc2ccc3c(c2)OCO3)cc1NC(C)=O | 4.18
Cc1ccc(C2(C)NC(=O)N(CC(=O)NNC(=O)c3ccccc3)C2=O)cc1 (centres unmarked) | 13.3
COc1ccccc1C(=O)NCCC(=O)NCC1COc2ccccc2O1 (centres unmarked) | -0.0956
COC(=O)C1=C(C)NC(C)=C(C(=O)OC)C1C(=O)OCC(=O)c1ccc(F)cc1 | -7.46
COc1ccc(C2c3[nH]c4ccccc4c3CCN2C(=O)c2cn3ccccc3n2)c(F)c1 (centres unmarked) | 2.65
CCSc1nc2ccccc2n1CC(=O)N1CCCCC1 | -4.45
COc1ccccc1CNC(=O)COC(=O)c1ccccc1-c1ccccc1 | 2.38
CC1CN(C(=O)Nc2ccc(Br)cc2Cl)CC(C)O1 (centres unmarked) | 12.4
COc1ccc(NC(=O)CN2CCN(C(=S)NC3CCCC3)CC2)cc1 | -39.1
CCOC(=O)c1c(N)sc2c1CCC(C)C2 (centres unmarked) | -8.85
O=C(CSc1nnnn1-c1ccccc1)NCC1(N2CCOCC2)CCCCC1 | -21.3
O=C(c1ccccc1C(=O)N(c1ccccc1)c1ccccc1)N1CCCCC1 | 8.15
O=C(CSc1nnc(-c2ccc3c(c2)OCCO3)o1)N1CCCC1 | 9.03
Cc1ccc(-c2nc(-c3ccncc3)no2)c(Cl)c1 | 23.8
CCN(CC)C(=S)Oc1c(Cl)cccc1Cl | 2.33
CC1NC(=O)NC1CCCCCC(=O)Nc1ccc(F)cc1 (centres unmarked) | 10.4
O=C(/C=C/c1c(F)cccc1Cl)c1ccc(O)cc1 | 1.1
Cn1c(N)c(C(=O)COC(=O)c2ccc(Cl)c(S(=O)(=O)N3CCCCC3)c2)c(=O)n(C)c1=O | -25.5
CCc1ccc(OCC(=O)NC2CC(C)(C)NC(C)(C)C2)cc1 | -0.165

Structure (SMILES) | hERG current change (%, negative = inhibition) at 10uM [%]
CC(CC(=O)Nc1nnc(C(C)(C)C)s1)c1ccccc1 (centres unmarked) | 12.2
COc1cc(OC)c2ccc(=O)oc2c1C(CC(=O)N1CCCC1)c1ccc(N(C)C)cc1 (centres unmarked) | 10.2
COc1ccc(CCn2c(C)cc(C(=O)COC(=O)c3cnccn3)c2C)cc1 | 4.81
Cn1c(NC(=O)c2ccc(F)cc2)nc2ccccc21 | 21.5
COc1cc(C(=O)Nc2cc3c(cc2N2CCCCC2)n(C)c(=O)n3C)cc(OC)c1OC | 8.6
CCOc1ccc(NC(=O)CCN2CCN(c3ccccc3F)CC2)cc1 | -20.2
CCOC(=O)C1=C(C)NC(=O)NC1c1c(OC)ccc2ccccc12 (centres unmarked) | 12.9
COCCn1c(-c2ccc(OC)cc2)c(-c2ccc(OC)cc2)oc1=O | -24.4
COC(=O)Cn1c(=O)c2c(nc3n2CCCN3CCc2ccc(OC)c(OC)c2)n(C)c1=O | -22.8
COc1cc(OC)cc(C(=O)NC(=S)NCCc2ccccc2)c1 | -22.4
Cn1c2c(c(=O)n(C)c1=O)C(NS(=O)(=O)c1ccc(Cl)cc1)(C(F)(F)F)C(=O)N2 (centres unmarked) | -3.21
COc1ccc(C2/C(=C(\O)c3ccc4c(c3)OCCO4)C(=O)C(=O)N2c2nc(C)c(C(C)=O)s2)cc1 (centres unmarked) | 19.2
O=C(NCCN1CCCCC1)Nc1ccc(F)c(Cl)c1 | -33.9
COC(=O)N1CCN(c2ccc(Cl)c(Cl)c2)CC1 | -1.86
C=C1C(=O)O[C@@H]2C[C@@H](C)[C@@H]3C=CC(=O)[C@@]3(C)[C@@H](OC(C)=O)[C@H]12 | 8.19
COc1ccc(OC(=O)Nc2ccccc2)cc1 | 1.4
COC(=O)CN(c1ccccc1C)S(C)(=O)=O | 24.3
CC(C)CCn1c(SCC(=O)Nc2ccccc2C(F)(F)F)nc2nccnc2c1=O | -21.6
COCCNC(=O)c1ccc2ccccc2n1 | 0.29
O=C(CCC(=O)N1CCOc2ccc(Cl)cc21)NCCN1CCOCC1 | 3.97
Cc1cc(NS(=O)(=O)c2ccc(NC(=O)COc3cc(C)c(Cl)c(C)c3)cc2)no1 | 10.4
COc1ccccc1Nc1nc(-c2cccnc2)cs1 | -10.6
